The other results are listed elsewhere or left out. At the low end of the ranking, values are background and their order means little. The protein was read in a cell extract, so binding may be indirect.

The values below come from PMC10726135.

The test deals with T1, HNF4alpha2 (COS-7 nuclear extract) (UniProt P41235).
T1 sequence: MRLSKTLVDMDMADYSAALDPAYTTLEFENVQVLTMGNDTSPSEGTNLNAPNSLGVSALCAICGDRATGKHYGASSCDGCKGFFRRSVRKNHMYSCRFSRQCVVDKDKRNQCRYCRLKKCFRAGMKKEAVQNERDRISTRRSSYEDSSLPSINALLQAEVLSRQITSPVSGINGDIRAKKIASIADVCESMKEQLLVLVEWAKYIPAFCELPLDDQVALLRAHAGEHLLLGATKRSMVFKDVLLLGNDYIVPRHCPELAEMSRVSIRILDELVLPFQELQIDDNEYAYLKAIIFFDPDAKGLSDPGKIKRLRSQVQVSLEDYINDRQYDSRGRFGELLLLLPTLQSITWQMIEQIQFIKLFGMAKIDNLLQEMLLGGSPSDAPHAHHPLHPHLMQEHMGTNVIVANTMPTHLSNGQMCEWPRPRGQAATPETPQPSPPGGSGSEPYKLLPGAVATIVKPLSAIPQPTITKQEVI
Briefly: protein-binding microarray. The conditions noted are these: COS-7 nuclear extract on double-stranded Agilent 4x180k PBM; binding buffer, salt, pH and temperature not given; high values mean tight binding; double strand, one strand shown; sequences stand for … in …GCCTAGGGAGATTAGAGTATCGGTCGA
With CTAAGCAGGCACATTCCAGGACCTTTGCTC, the binding signal (log2 normalized intensity) was found to be 4.08.
The value for TGGTGGACGTACGCTCCCAGTATGAGCGGC was -0.952; that for TTACATGCCTTATCTGGTTCAAAGGTCATT was 7.65.
The value for AAAGCCACCCCTTTCTCCTCTCTTTCCATA was 0.557; that for CAATGTGTGACAGAAGTCATGTCTCATTGC was 0.776.
The value for ATGCCAGATGACCTTTGCCCTTGACTTTTT was 8.55; that for AGAGGAAAGCCCTAGCTGACTGCGTCAGGC was -1.1; that for CGAGAAGGCAGCCACCCACAAGCCAAGGAG was -1.1.
For the sequence GGCGGCGCGGCCGGAGCGGCGGACCCGGCG, the binding signal (log2 normalized intensity) is -0.781.
As to AGGGGAGGCTGAGGTTTTCATCCCAGGGCT, the binding signal (log2 normalized intensity) was -1.13.
The figure for TTAACCTTTGATCATATGCATTTCCCTAGA is 3.08; for ATCACACAAAACGCACAGAGGCCCCTGATG it is -1.03; for CAGAGGGTGGCAGCAGCAGGCAGGGACTTT it is 0.922.
The figure for TTGCAGCAAGGAATTCAACCCTTGTCACTT is 2.61; for TAGTCTAGACTTTGCTTTCTTGGAGGTTAA it is 1.7.
The value for GACATGCAGTATGGGGACTTTGGACTCCTG was 7.53; that for GATTTTGTTGGGGAACTTTGCCCGGATTCC was 2.59; that for AAAGGTTAACATTCTTGCTTTCTGACTCTT was 1.19.
For GGCAAGCAGGAGCTGGCCTGGTAGGACAGG, the binding signal (log2 normalized intensity) is -1.1.
In the case of GAGAGTCAACACTGAAATAGCATACCTTTA, the binding signal (log2 normalized intensity) is -0.915.
The value for GCCAGGGATTAAAGAATTCGTCCAGGGCCG was -1.04; that for TCCATCAATGAAGCATATCAGTAGTTGCAA was -0.833; that for TAAACAGCATTTGTTTTAAGTTCATAGGTC was 4.12.
The value for GAATGCTGTCCTGCCAGTTGTCATTTGGGG was 1.48.
The value for TGCTGGAGATGAGGCTCAGACCTGACCTTT was 6.49; that for TTCTTTATGGACCTTGTCCCTGGATTGTGT was 3.55; that for AGCATTTGTTTTAAGTTCATAGGTCCTCTT was 2.02.
Turning to CCTGGACCCCTCCGGCAGCGGCCGGAAAAA, the binding signal (log2 normalized intensity) stood at 1.54.
The figure for CCTCGGGTCCCACACACCTCAAATGCAGGT is -1.04.
The figure for CTTAACAAACACAAAAAGCGGACAAACCAG is -1.14.
Turning to AAAGGAATGTGCCTGCAAGTTCAAAAGGAC, the binding signal (log2 normalized intensity) stood at 1.1.
As for ACCCTAGAGATGTACACAGTTCAAAGGGCA, the binding signal (log2 normalized intensity) was 5.52.
On to GTTGGAAGCTGATAAGCCAAGAATGTACTC, for which the binding signal (log2 normalized intensity) came to 0.713.
The figure for AAGATAAAGTGTCTCTATTTGGAACCAAGA is 0.792.
The figure for ACCAGACTACCTCTTTAGGCTGGACTCTGA is 3.96.
The value for AGTGGACTTTGACCTTGTTTTCAATGACTA was 7.31.
Regarding TGTGTCAAAGGTCACTTAGTCCCTAAGTCT, the binding signal (log2 normalized intensity) amounted to 4.3.
The figure for GGGCCAGCAGTGCCCAAAGCCCAAGGGATG is -1.11; for GGCGTGACCCCCACTGCCTGCCTGCCAACT it is 2.89; for ATCAAGGTGGTTTCACTTCAAGATGGCATC it is 0.985.
The figure for TGTCCACCTTATCTAATGCCCCAAATGACG is 2.33.
Take TAAATGACCTCTGCCCTTCCACCCACTTTA: the binding signal (log2 normalized intensity) was found to be 4.15.
The value for TGCTAGAGTACTTGGACTTTAACCTTTAGA was 9.24; that for GTCATAAGCTGTGGGATCCAACCAGAGGGA was -1.15; that for CTCTTGCTTCCTGGGATGCATTTGAAACCA was 0.504.
The value for TTCCTATGTAAACACAAGATATTATTAGAC was 0.179; that for ATATTCCAAATTCCAGCTGAAGTTCCCAGC was -1.12; that for AATCTGAATTAACTCTTTACACAGTTCTGA was -0.00196.
The figure for TAGACTCCAGGCTTGTCCTTTTGACCACAG is 2.34; for GCTCTGCATCCTTCCCTAAGCAGCTGCAGT it is -1.1.
Regarding ACCTTCTACCGTACCTAGGACAAAGCAAAC, the binding signal (log2 normalized intensity) is -1.01.
The figure for AAAGTTCACCACTTTTGCAATGTTTCCAAA is -0.312.
The value for GGAATGAGCAGGAACCTTGTGGTGGTGAAA was 1.01.
The value for GCTGGAACAGGCTGGGACACGCCTGCCCTC was 1.35.
Regarding CCTTCACCAGAGCCGTCTGGTAAATTTCTA, the binding signal (log2 normalized intensity) was -0.574.
The figure for ATTTTAGGAGCCTCCAATCAGGACAGACTG is -1.23; for GTGTTCACACCACACTCTCCTCCTGGCCTC it is -0.932; for ACATGACCACCTGGTTTAAGTCACTATCAA it is -0.506.
The figure for TGTGTTTCTCAATGTCTTTCCTGCAGAGGG is 1.21; for TTGCTGACCCCCTACATAGAGAGCAGTCTT it is 2.53; for GATGGTAACCACACCAAGGGGCCCCCACTT it is -1.11.
The value for CCAAGACCTTTGAAGCTTGCAACAAAGGGG was -0.648.
AATGTTATTTATCCAGCTGGGTATACTGAC: the binding signal (log2 normalized intensity) was 0.8.
The value for AAGTCTGAAATCTACAGGACAGCCAGGCAG was -1.21; that for AAAGGCAGCCCCTTATCAGGAGAGGAGGCC was -1.07.
The value for CTGGACAGGTCCAAGGTTCTCCAGGGACCC was 0.952; that for TGCCTCAGTAGTAGTGAAAAATGAATAACT was -0.751; that for CCCAGAGGCTGGTCAGAATTCCATCCCAGG was -1.11.
The figure for ATTAAGCAAGATATGTGCCTGCCTTATACA is 0.217; for ATTGCCAAGGGGGTGGTGAAATGGGGGAAG it is -1.09; for CTGACCAGCTCCAAAGTCCGCCACTAGCAA it is -0.153.
Take GTTTATCTGCCTGTGGATAGCTGGCATGCA: the binding signal (log2 normalized intensity) was -1.09.
The figure for GTGGTACTCCAAAGGTCAGTTTAATTTTTG is 3.67.
